According to PubChem BioAssay AID1030 (National Center for Advancing Translational Sciences (NCATS), 2008):
Screen size: about 220,000 compounds; about 16,000 (7.3%) were called active. The shares of active, inactive and inconclusive entries below differ from those in the screen. The call rests on the fitted dose curve; in most records, active means well fitted inhibition curve with a large enough effect (not every such curve was filed as active); inconclusive means small, poorly fitted or top-dose-only effect, or another doubt; inactive means no such curve, though single readings can be large or run the other way. Potencies of inconclusive entries are left out as doubtful fits.

target: Aldehyde dehydrogenase 1A1 (Homo sapiens) (UniProt P00352); experiment: qHTS Assay for Inhibitors of Aldehyde Dehydrogenase 1 (ALDH1A1); conditions: Purified ALDH1A1, NADH fluorescence, propionaldehyde substrate; series mostly up to 75.3 µM; activity, negative = inhibition: at the top concentration;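 on activity, negative = inhibition: plate controls were no enzyme wells and a reference inhibitor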
Potency means the concentration at half of the fitted maximal effect; tags describe the fitted curve by direction and shape.

UniProt P00352, sequence (P00352 whole entry, looked up): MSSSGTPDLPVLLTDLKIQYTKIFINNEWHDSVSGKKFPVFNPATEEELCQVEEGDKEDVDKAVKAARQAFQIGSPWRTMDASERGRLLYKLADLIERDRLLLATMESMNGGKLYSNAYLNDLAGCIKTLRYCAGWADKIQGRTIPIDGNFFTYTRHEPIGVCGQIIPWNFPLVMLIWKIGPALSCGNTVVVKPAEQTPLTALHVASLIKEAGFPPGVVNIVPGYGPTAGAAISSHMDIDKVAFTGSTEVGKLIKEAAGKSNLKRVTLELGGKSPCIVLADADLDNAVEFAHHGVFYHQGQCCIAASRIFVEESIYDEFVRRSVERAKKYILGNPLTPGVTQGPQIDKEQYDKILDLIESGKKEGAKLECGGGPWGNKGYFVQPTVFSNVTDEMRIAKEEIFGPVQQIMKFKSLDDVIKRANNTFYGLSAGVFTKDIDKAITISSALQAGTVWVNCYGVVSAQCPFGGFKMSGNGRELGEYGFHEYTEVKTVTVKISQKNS

Row | Structure (SMILES) | Potency | activity, negative = inhibition
1 | CCn1c(SCC(=O)c2cccs2)nnc1-c1cccs1 | inconclusive [inhibitor, single point] | –
2 | O=C1CC(N2CCC(c3nc4ccccc4o3)CC2)C(=O)N1c1cc(Cl)cc(Cl)c1 (configuration not stated) | active: 3.98 µM | –
3 | Cc1ccc(C)n1-c1nccc(-c2cccs2)n1 | inconclusive [inhibitor, partial curve] | –
4 | CC(=O)Nc1c(O)nc(SCC(=O)Nc2ccc(C(C)=O)cc2)[nH]c1=O | active: 11.2 µM | –
5 | CCCCn1c(-c2csc3c2CCCC3)n[nH]c1=S | inconclusive [inhibitor, partial curve] | –
6 | CCCc1cc(=O)oc2cc(C)cc(OC(=O)c3ccco3)c12 | active: 2.24 µM | –
7 | CN1CCN(c2cc(C(F)(F)F)nc(-c3ccccn3)n2)CC1 | inconclusive [inhibitor, partial curve, poor fit] | –
8 | CCN(CC)S(=O)(=O)c1cccc(C(=O)N/N=C/c2ccc(OC)c(O)c2)c1 | active: 25.1 µM | –
9 | c1ccc(-c2ccccc2OCCOCCN2CCNCC2)cc1 | inconclusive [inhibitor, single point] | –
10 | C=CCn1c(O)c(N=NC(=O)c2cccnc2)c2cc(Br)ccc21 | inconclusive [inhibitor, full curve] | –
11 | NC(N)=NS(=O)(=O)c1ccc(NC(=S)NC(=O)c2sc3ccccc3c2Cl)cc1 | inconclusive [inhibitor, single point] | –
12 | CC(C)(C)n1nnnc1CN1CCSCC1 | active: 25.1 µM | –
13 | CCc1ccc(NC(=O)/C(C#N)=C/c2cc3ccc(C)cc3nc2N2CCOCC2)cc1 | – | inactive: 4.49%
14 | CCN(CC)C(=O)Oc1ccc2c(=O)c(-c3ccccc3)coc2c1 | inconclusive [inhibitor, single point] | –
15 | CCOC(=O)CSc1nc(-c2ccc(OC)cc2)ns1 | active: 25.1 µM | –
16 | CCSc1oc(-c2cccs2)nc1S(=O)(=O)c1ccccc1 | inconclusive [inhibitor, partial curve] | –
17 | CCOC(=O)N1CCN(C(=O)c2cc3cc(Br)ccc3oc2=O)CC1 | inconclusive [inhibitor, single point] | –
18 | CC(C)C(=O)c1cn(CC(=O)O)c2ccccc12 | inconclusive [inhibitor, single point] | –
19 | CCN1C(=C2C(=O)c3ccccc3C2=O)C=Cc2ccccc21 | – | inactive: 1.43%
20 | COc1cccc(C(=O)C2CCCN(C/C=C/c3ccccc3OC)C2)c1 (configuration not stated) | inconclusive [inhibitor, single point] | –
21 | Cc1nc(-c2ccccc2)sc1-c1n[nH]c(=S)n1C | active: 25.1 µM | –
22 | Cc1cc(C(=O)CSc2cccc[n+]2[O-])c(C)n1-c1ccc(Br)cc1 | inconclusive [inhibitor, single point] | –
23 | COc1ccc(NC(=O)C(=O)NCCN2CCN(C(=O)c3ccco3)CC2)cc1 | inconclusive [inhibitor, single point] | –
24 | Cc1cccc(OCCn2c(S(=O)(=O)O)nc3ccccc32)c1 | – | inactive: -28.1%

Row | Structure (SMILES) | Potency | activity, negative = inhibition
25 | O=C(Nc1ccccc1N1CCN(C(=O)c2ccccc2)CC1)c1ccc(Cl)cc1 | inconclusive [inhibitor, single point] | –
26 | Cc1cc(=O)n(CC(C)O)c(O)c1C#N (configuration not stated) | inconclusive [inhibitor, single point] | –
27 | COc1ccc(CNC(=S)Nc2ccc3nc(N4CCOCC4)cc(C)c3c2)cc1 | inconclusive [inhibitor, single point] | –
28 | Cc1onc(-c2ccccc2Cl)c1C(=O)NCc1nc(-c2ccccc2)no1 | inconclusive [inhibitor, partial curve] | –
29 | O=[N+]([O-])C1=C(Nc2cccc3ccccc23)CS(=O)(=O)C1 | inconclusive [inhibitor, single point] | –
30 | Cc1[nH]c(C)c(Cl)c(=O)c1Cl | – | inactive: -2.77%
31 | CC(=O)Nc1ccc(S(=O)(=O)N2CCN(Cc3ccccc3[N+](=O)[O-])CC2)cc1 | active: 22.4 µM | –
32 | CCOC(=O)c1cc(-c2ccccc2)nn1-c1ccccn1 | active: 12.6 µM | –
33 | COc1cccc(C(=O)NC2CCN(CC(=O)NCc3ccccc3OC)CC2)c1 | – | inactive: -14.2%
34 | O=C(Nc1nccs1)c1ccccc1N=Cc1ccccc1 | inconclusive [inhibitor, partial curve] | –
35 | CC(OC(=O)c1ccc2ccccc2n1)C(=O)c1ccccc1 (configuration not stated) | – | inactive: -2.56%
36 | CN1CCC2(CC1)CCN(C(=O)c1cc(C(F)(F)F)cc(C(F)(F)F)c1)CC2 | – | inactive: 5.77%
37 | CC1(C)C(=O)C2(CCCCC2)C(=O)OC1c1cccc([N+](=O)[O-])c1 (configuration not stated) | inconclusive [inhibitor, single point] | –
38 | Cc1ccsc1/C=C1/SC(=O)N(CC(=O)N2CCOCC2)C1=O | – | inactive: -61.4%
39 | CCN1/C(=C/c2cc[n+](CCCS(=O)(=O)[O-])c3ccccc23)Sc2ccccc21 | inconclusive [inhibitor, partial curve] | –
40 | COC(=O)c1ccc(CSc2nnc3n(Cc4ccccc4OC)c(=O)c4ccccc4n23)o1 | inconclusive [inhibitor, single point] | –
41 | CCCOc1ccccc1Cn1c(=O)oc2ccc(C)cc21 | inconclusive [inhibitor, single point] | –
42 | [O-]/C(=C(\C(=S)Nc1ccc(SC(F)F)cc1)[n+]1ccccc1)c1ccc(Cl)cc1Cl | inconclusive [inhibitor, single point] | –
43 | O=C(NC(=O)N1CCCCC1)c1ccccc1 | – | inactive: 9.57%
44 | Cc1cc(NC(=O)c2cnn3cccnc23)no1 | inconclusive [inhibitor, partial curve] | –
45 | COc1ccc(-n2c(SCC(=O)NCC3CCCO3)nc3ccccc32)cc1 (configuration not stated) | inconclusive [inhibitor, single point] | –
46 | CN1c2ccccc2-c2nc3ccccc3n2C1c1ccco1 (configuration not stated) | inconclusive [inhibitor, partial curve] | –
47 | CCOc1ccccc1NC(=O)C(OC(=O)c1cc(C)oc1C)c1ccccc1 (configuration not stated) | inconclusive [inhibitor, single point] | –
